# ± gives the standard deviation of the averaged measurements. Some of the results follow.
# Tested on: PfAP2-EXP AP2 domain (GST-tagged)
# Test: gcPBM binding intensity (ln(normalized median fluorescence intensity)); higher = stronger DNA binding
# Method in brief: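 GST-tagged P. falciparum DNA-binding domains produced in E. coli were incubated for 1 h on an Agilent 4 × 180k array of primer-extended double-stranded 36-bp intergenic genomic probes with negative controls. Binding intensity is the highest Masliner-normalised natural-log median intensity across replicate spots of either probe orientation, with bound protein detected by Alexa488 anti-GST antibody at 488 nm.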
row,Sequence,gcPBM binding intensity (ln)
1,GTTTGGTGGTGTTTTGGTACGTACGGGGGGGTATGT [XGTACX_site1983],10.6 ± 0.19
2,TTTTTTTTTTTTTATTGTACTTATTTTTTTATGTTT [XGTACX_site7725],8.32 ± 0.57
3,AAATATAAAGGATTAATATTATATATATATATATAT [XGTACX_negctrl_site211],10.1 ± 0.32
4,GTATTATATATATAGGTGCATATATATATATAAATA [GTGCAC_site9787],8.61 ± 0.26
5,ACACATACATATACATACACATTGTTTTCATGCATC [XGTACX_negctrl_site126],8.8 ± 0.38
6,TATATGTGTCTACAGGTGCATATATCATATATTGCT,8.57 ± 0.11
7,TATAAATATTTATACACACACATATATTTATATATC [CACACA_site6366],8.61 ± 0.47
8,TAAATAAATTTATACACACACACACGGATATAAATA [CACACA_site6532],8.93 ± 0.45
9,ATATTTTCTTTAAATTGTACATATTGTGATACAAAA [XGTACX_site5886],8.54 ± 0.42
10,TATGTATTTTTATGCACACATGCGTGGCTTATATAA [CACACA_site387],9.06 ± 0.057
11,TTTCATTTAGCTTTTACACACTATATATTATTGATT [CACACA_site16],8.88 ± 0.45
12,TATATACATACATGTAGTACCTAATTCGGTCCCGTA [XGTACX_site2702],8.8 ± 0.49
13,ATTTTTTTTTTTTTTTTTTTTTTGTTTATACAAAAT [CACACA_negctrl_site1241],8.07 ± 0.56
14,AAGATATTTGAATATACACACGATTTAAATTTAATA [CACACA_site3866],8.34 ± 0.5
15,ATACGTGGGCAAAAAGTGCATATAATCAAAAAAAAA [GTGCAC_site9961],8.81 ± 0.38
16,ATATATATATTTGTATGTACATATCATATTGTGTGT [XGTACX_site1580],9.33 ± 0.17
17,TTCTTTCTGTTTTATTTATAATAATTTATGATAAAA [CACACA_negctrl_site766],8.69 ± 0.32
18,TGTTTTTAATTTCGCACACACCTTGTGGAAAAAAAA [CACACA_site4482],8.36 ± 0.36
19,TTGAAATATACGTAAGTAAATTTCATTTGGTTGTGT [XGTACX_negctrl_site600],8.28 ± 0.39
20,AAAATATTTATTACTTCACACATTATTGTATTTATA [CACACA_site5082],8.65 ± 0.44
21,CATATATTATTATATGCACACATGAAAATATACAAA [CACACA_site2795],8.65 ± 0.28
22,ACGTATAATATGTACACACACATATATACAAAAAAA [CACACA_site917],8.57 ± 0.3

row,Sequence,gcPBM binding intensity (ln)
1,TTTCTTTTTTTATAATCCACATTGGGAAAATCAAAA [TGCATGCA_negctrl_site159],8.36 ± 0.41
2,GTATAACTTTTGCGCGTACACACATTTATCCTCTTT [CACACA_site208],9.87 ± 0.55
3,TAGAATATCCCCTACACACCCAAATAATTTACAAAT [CACACA_site4825],9.51 ± 0.67
4,AAAGTTGTTACGAACATACACACGAACATACTCACG [CACACA_site604],8.7 ± 0.69
5,TAAGTAACTTTTAAAAGTACCCACACATATATATAT [XGTACX_site1231],9.915 ± 0.035
6,TCATTTTATTTTTTCACACACACATCTATATTTATA [CACACA_site7547],8.86 ± 0.31
7,ACAAAAATAAACTATAGTACACACTTATTATTATGA [XGTACX_site5680],8.34 ± 0.31
8,TTTCTTTTTTTTTTTTTTTTTTTTTTTTTTTTTTTT [TGCATGCA_negctrl_site91],9.26 ± 0.21
9,TTATGTATTTATATAAATATAAATATATATATATAT [CACACA_negctrl_site774],9.92 ± 0.23
10,TATATTTATAGGTATACACACATATGTATGTTATGT [CACACA_site7824],8.43 ± 0.35
11,AAAAAAAAGAAAAACACACACATATATATATAGAAT [CACACA_site1006],8.71 ± 0.68
12,TTTCCCTTGTTGTAAACATGCACAATATTTAGGTAT [TGCATGCA_site49],8.68 ± 0.34
13,ATACATATAAATAATTGTACTATTAAAAAAGAACGT [XGTACX_site3751],9.14 ± 0.58
14,ATAATATATTTTTGTAGTACACTTCTGGTAATATCG [XGTACX_site2402],8.87 ± 0.49
15,AGTATACAGATATATACACACATATATATATATATA [CACACA_site4323],10 ± 0.41
16,CTTAGAATATATGAATGTACTTTTTTTTTTAAATAA [XGTACX_site6048],8.15 ± 0.15
17,CAATTAGCATTTTATTGTACATTTATAATCTATGAT [XGTACX_site1445],8.59 ± 0.38
18,AAAAAAAAAAATACTCGTACATAAACCTATACATTT [XGTACX_site6494],8.51 ± 0.45
19,TATATATATATATGTTGTACAAAAATGTAAAATATA [XGTACX_site7761],10 ± 0.31
20,ATAATATTAATATGTACACACCTTAATCCTTAAAAG [CACACA_site7640],8.52 ± 0.35
21,ATAATTTTTTAAGTGTGTACTAAAATGTGTATTTTA [XGTACX_site6227],8.45 ± 0.33
22,TATACCTGAATTAAAAGTACATGTATATATTTTCCC [XGTACX_site3594],8.44 ± 0.3

row,Sequence,gcPBM binding intensity (ln)
1,GTATTTATATGATTAACACACATATGGGTATTAATA [CACACA_site4853],8.52 ± 0.35
2,TTGCATTTTCTAGTAACACACAATTAGCGTTGCTGT [CACACA_site3594],8.54 ± 0.6
3,TATAGAAGCATTCACACACACACATACATACACATA [CACACA_site1466],8.62 ± 0.45
4,TAACAAAAAGGGAACACATGCGCTCTTTATTTATTT [TGCATGCA_site620],8.51 ± 0.46
5,AATATATGAATTATATGTACATATAGATAAGTCACA [XGTACX_site7637],8.71 ± 0.42
6,TCTTAATATCGTTTCTCACACATATACAAACATAAA [CACACA_site5700],8.62 ± 0.49
7,TATTATAGAAATTTAATGTTGGACAAAAAAATGAAA [CACACA_negctrl_site1351],8.61 ± 0.44
8,AAATTATTTATTTTATGTACATATTATTAAAGTTAA [XGTACX_site552],8.38 ± 0.25
9,AGAGAGAAAGCTATAACATGCAACAATTTTTAGAAC [TGCATGCA_site596],9 ± 0.3
10,ATAAATGACAAATTAACACACATATATTATAGATAT [CACACA_site7770],8.44 ± 0.47
11,TAATGCATTTTCGCATGTACATATTTCTCTTTATAT [XGTACX_site8915],8.48 ± 0.071
12,AAAATGTGATATGTAAATATATATGTATGTATATAT [CACACA_negctrl_site1748],8.54 ± 0.36
13,ATCTATATTTAATTTACACACAAAAAAAATTGTTGG [CACACA_site6582],8.54 ± 0.49
14,ATAAATATGTAAAAAACATGCAAAAAATTAAAGACA [TGCATGCA_site912],9.17 ± 0.3
15,TTATTACATAACAATATACACACTATTGATTAAAGA [CACACA_site2933],8.39 ± 0.41
16,TAAAAAAAAAGAAGCTGTACTAAAAAATTTATATTA [XGTACX_site7408],8.46 ± 0.48
17,GTTATTAAACAGAAAAGTACATATGTATATTAAAAT [XGTACX_site3724],8.8 ± 0.39
18,TTATTAAATAAAATCATGCACACAATATATATTTTA [CACACA_site2496],8.26 ± 0.33
19,AACGCACATATATTTATGTATATATATATATATATA [GTGCAC_negctrl_site478],10.2 ± 0.31
20,TCATAGTAGAAACACACACACACACCCATATATATA [CACACA_site1737],8.81 ± 0.33
21,GGAAACAAAAAATATATACACACTAAACATAAAAAA [CACACA_site20],8.79 ± 0.38
22,GGGTTTTTTATTAATACATGCATGGAAACGCACTAT [TGCATGCA_site1000],9.41 ± 0.35

row,Sequence,gcPBM binding intensity (ln)
1,AAATTCATAAAAATATTTTATAATTATATATAGAAT [TGCATGCA_negctrl_site343],8.32 ± 0.44
2,AAGAAAAACAATGAGATAAAGAAGAGAAAATATGTC [TGCATGCA_negctrl_site415],9.12 ± 0.45
3,ATATATATATAATTTGTACACACAAATATGCATATA [CACACA_site9136],9.71 ± 0.13
4,AGTGGAATGTATGATTTTCATTCCTTAAAATTTTAA [GTGCAC_negctrl_site521],8.24 ± 0.5
5,TATTGATTTATAAACACACACTCGAAGATGTTTAAC [CACACA_site4760],8.44 ± 0.43
6,AATACTAAAAAGTGTACACATACATAAAAAATTGCA [CACACA_site5620],9.27 ± 0.26
7,AAGAAAAAAGTTATTAGTACACATTATAATAAAAAG [XGTACX_site3527],8.76 ± 0.37
8,CATTATGTTGTAAATACACACATACATATACATACA [CACACA_site8143],8.51 ± 0.29
9,TAATTTTCTTTTTATCGTTTTTTTTTTTTTTTTTTT [XGTACX_negctrl_site432],8.59 ± 0.3
10,TATATCTCATAGTATACACACACACCCACCCACATA [CACACA_site8513],9.38 ± 0.61
11,TATATATATGTAAATCGTACAAATTATATATATCAT [XGTACX_site2821],8.37 ± 0.36
12,ATATATTATTTCTAGTGTACATACCCATATATAATA [XGTACX_site8902],8.97 ± 0.33
13,ATAAATAAGATATATACACACATATCTATACATATT [CACACA_site6369],8.28 ± 0.49
14,GGCTAAAAGGGGCACACACACAAAAAAAAAAAAAAA [CACACA_site3288],8.49 ± 0.17
15,ATTTAAGAAAAAAGTTGTACTTATTTATTTTTATTT [XGTACX_site5561],8.18 ± 0.34
16,AATCCACTTTTTTATGTTATACAATATAAATTAAAT [XGTACX_negctrl_site446],8.61 ± 0.61
17,ATTGAATTCCAACTGGTGCACCAGTAAGATTGAAAA [GTGCAC_site9895],8.985 ± 0.064
18,TAAAAAATAAATATATGTACATATTTATTTTTTTTT [XGTACX_site850],8.21 ± 0.35
19,ATATTTTTTTTTTCGTGTACGCATAAATATATCTAA [XGTACX_site3360],8.86 ± 0.46
20,TAGATAAACAAGAAATGTACAAACGTAAATATGTTC [XGTACX_site2373],8.61 ± 0.39
21,AATATCCACATTAGGAGTACACAGCTAACTGTTTGA [XGTACX_site3357],8.39 ± 0.35
22,TTGATTACACTGAAGTGTACATATATATATATATAT [XGTACX_site3532],10.1 ± 0.38

# Reference: the supplement of paper PMC11417369
